Experimental data as given in the supplement of paper PMC8728848.
The other results are listed elsewhere or left out.

Assays:
Test in all cases: glycan array binding signal (z-score within array); higher = stronger binding
Settings in all cases: glycan notation: IUPAC condensed, linker removed
[1] = molecular target: GlcNAc(b1-2)[GlcNAc(b1-4)]Man(a1-3)[GlcNAc(b1-4)][GlcNAc(b1-2)[GlcNAc(b1-6)]Man(a1-6)]Man(b1-4)GlcNAc(b1-4)GlcNAc
Outline: (§1)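 The binding signal is a Z-score computed within each array. Data were drawn from 3228 arrays in the Consortium for Functional Glycomics database, restricted to those with a known protein sequence. Scores were averaged over arrays of the same protein sequence at different concentrations or buffers, and over linkers, and negative values can be taken as non-binding.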

[2] = molecular target: GlcNAc(b1-2)[GlcNAc(b1-4)]Man(a1-3)[GlcNAc(b1-4)][GlcNAc(b1-2)[GlcNAc(b1-6)]Man(a1-6)]Man(b1-4)GlcNAc(b1-4)[Fuc(a1-6)]GlcNAc
Outline: as §1

[3] = molecular target: GlcNAc(b1-2)[GlcNAc(b1-6)]Man(a1-6)[GlcNAc(b1-2)Man(a1-3)]Man(b1-4)GlcNAc(b1-4)GlcNAc
Outline: as §1

[4] = molecular target: GlcNAc(b1-2)[GlcNAc(b1-6)]Man(a1-6)[GlcNAc(b1-2)Man(a1-3)]Man(b1-4)GlcNAc(b1-4)[Fuc(a1-6)]GlcNAc
Outline: as §1

[5] = molecular target: GlcNAc(b1-2)[GlcNAc(b1-6)]Man(a1-6)[GlcNAc(b1-4)][GlcNAc(b1-2)Man(a1-3)]Man(b1-4)GlcNAc(b1-4)GlcNAc
Outline: as §1

GlcNAc(b1-3)Fuc = molecular target: GlcNAc(b1-3)Fuc
Outline: as §1

GlcNAc(b1-3)Gal = molecular target: GlcNAc(b1-3)Gal
Outline: as §1

[6] = molecular target: GlcNAc(b1-3)Gal(b1-3)GalNAc
Outline: as §1

GlcNAc(b1-3)Gal(b1-4)Glc = molecular target: GlcNAc(b1-3)Gal(b1-4)Glc
Outline: as §1

[7] = molecular target: GlcNAc(b1-3)Gal(b1-4)GlcNAc
Outline: as §1

[8] = molecular target: GlcNAc(b1-3)Gal(b1-4)GlcNAc(b1-2)Man(a1-3)[GlcNAc(b1-3)Gal(b1-4)GlcNAc(b1-2)Man(a1-6)]Man(b1-4)GlcNAc(b1-4)GlcNAc
Outline: as §1

[9] = molecular target: GlcNAc(b1-3)Gal(b1-4)GlcNAc(b1-2)Man(a1-3)[GlcNAc(b1-3)Gal(b1-4)GlcNAc(b1-2)Man(a1-6)]Man(b1-4)GlcNAc(b1-4)[Fuc(a1-6)]GlcNAc
Outline: as §1

[10] = molecular target: GlcNAc(b1-3)Gal(b1-4)GlcNAc(b1-2)[GlcNAc(b1-3)Gal(b1-4)GlcNAc(b1-6)]Man(a1-6)[GlcNAc(b1-3)Gal(b1-4)GlcNAc(b1-2)Man(a1-3)]Man(b1-4)GlcNAc(b1-4)GlcNAc
Outline: as §1

[11] = molecular target: GlcNAc(b1-3)Gal(b1-4)GlcNAc(b1-3)Gal(b1-4)GlcNAc
Outline: as §1

[12] = molecular target: GlcNAc(b1-3)Gal(b1-4)GlcNAc(b1-3)Gal(b1-4)GlcNAc(b1-2)Man(a1-3)[GlcNAc(b1-3)Gal(b1-4)GlcNAc(b1-3)Gal(b1-4)GlcNAc(b1-2)Man(a1-6)]Man(b1-4)GlcNAc(b1-4)GlcNAc
Outline: as §1

[13] = molecular target: GlcNAc(b1-3)Gal(b1-4)GlcNAc(b1-3)Gal(b1-4)GlcNAc(b1-2)Man(a1-3)[GlcNAc(b1-3)Gal(b1-4)GlcNAc(b1-3)Gal(b1-4)GlcNAc(b1-2)Man(a1-6)]Man(b1-4)GlcNAc(b1-4)[Fuc(a1-6)]GlcNAc
Outline: as §1

[14] = molecular target: GlcNAc(b1-3)Gal(b1-4)GlcNAc(b1-3)Gal(b1-4)GlcNAc(b1-2)[GlcNAc(b1-3)Gal(b1-4)GlcNAc(b1-3)Gal(b1-4)GlcNAc(b1-6)]Man(a1-6)[GlcNAc(b1-3)Gal(b1-4)GlcNAc(b1-3)Gal(b1-4)GlcNAc(b1-2)Man(a1-3)]Man(b1-4)GlcNAc(b1-4)[Fuc(a1-6)]GlcNAc
Outline: as §1

[15] = molecular target: GlcNAc(b1-3)Gal(b1-4)GlcNAc(b1-3)Gal(b1-4)GlcNAc(b1-3)Gal(b1-4)GlcNAc(b1-2)Man(a1-3)[GlcNAc(b1-3)Gal(b1-4)GlcNAc(b1-3)Gal(b1-4)GlcNAc(b1-3)Gal(b1-4)GlcNAc(b1-2)Man(a1-6)]Man(b1-4)GlcNAc(b1-4)GlcNAc
Outline: as §1

[16] = molecular target: GlcNAc(b1-3)Gal(b1-4)GlcNAc(b1-3)Gal(b1-4)GlcNAc(b1-3)Gal(b1-4)GlcNAc(b1-2)Man(a1-3)[GlcNAc(b1-3)Gal(b1-4)GlcNAc(b1-3)Gal(b1-4)GlcNAc(b1-3)Gal(b1-4)GlcNAc(b1-2)Man(a1-6)]Man(b1-4)GlcNAc(b1-4)[Fuc(a1-6)]GlcNAc
Outline: as §1

[17] = molecular target: GlcNAc(b1-3)Gal(b1-4)GlcNAc(b1-3)Gal(b1-4)GlcNAc(b1-3)Gal(b1-4)GlcNAc(b1-2)[GlcNAc(b1-3)Gal(b1-4)GlcNAc(b1-3)Gal(b1-4)GlcNAc(b1-3)Gal(b1-4)GlcNAc(b1-6)]Man(a1-6)[GlcNAc(b1-3)Gal(b1-4)GlcNAc(b1-3)Gal(b1-4)GlcNAc(b1-3)Gal(b1-4)GlcNAc(b1-2)Man(a1-3)]Man(b1-4)GlcNAc(b1-4)[Fuc(a1-6)]GlcNAc
Outline: as §1

[18] = molecular target: GlcNAc(b1-3)Gal(b1-4)GlcNAc(b1-3)Gal(b1-4)GlcNAc(b1-3)Gal(b1-4)GlcNAc(b1-3)Gal(b1-4)GlcNAc(b1-2)Man(a1-3)[GlcNAc(b1-3)Gal(b1-4)GlcNAc(b1-3)Gal(b1-4)GlcNAc(b1-3)Gal(b1-4)GlcNAc(b1-3)Gal(b1-4)GlcNAc(b1-2)Man(a1-6)]Man(b1-4)GlcNAc(b1-4)GlcNAc
Outline: as §1

[19] = molecular target: GlcNAc(b1-3)Gal(b1-4)GlcNAc(b1-3)Gal(b1-4)GlcNAc(b1-3)Gal(b1-4)GlcNAc(b1-3)Gal(b1-4)GlcNAc(b1-2)Man(a1-3)[GlcNAc(b1-3)Gal(b1-4)GlcNAc(b1-3)Gal(b1-4)GlcNAc(b1-3)Gal(b1-4)GlcNAc(b1-3)Gal(b1-4)GlcNAc(b1-2)Man(a1-6)]Man(b1-4)GlcNAc(b1-4)[Fuc(a1-6)]GlcNAc
Outline: as §1

[20] = molecular target: GlcNAc(b1-3)Gal(b1-4)GlcNAc(b1-3)Gal(b1-4)GlcNAc(b1-3)Gal(b1-4)GlcNAc(b1-3)Gal(b1-4)GlcNAc(b1-2)[GlcNAc(b1-3)Gal(b1-4)GlcNAc(b1-3)Gal(b1-4)GlcNAc(b1-3)Gal(b1-4)GlcNAc(b1-3)Gal(b1-4)GlcNAc(b1-6)]Man(a1-6)[GlcNAc(b1-3)Gal(b1-4)GlcNAc(b1-3)Gal(b1-4)GlcNAc(b1-3)Gal(b1-4)GlcNAc(b1-3)Gal(b1-4)GlcNAc(b1-2)Man(a1-3)]Man(b1-4)GlcNAc(b1-4)[Fuc(a1-6)]GlcNAc
Outline: as §1

B1: Mermaid3 (Stilbonema majum) (protein)
chain: MGSSHHHHHHSSGLVPRGSHMAASGWLRSPQGTVVKLYRRSLSWSKADEFCKDVDGRLVVDRTADMHLFLIKNVLKEKKSRVWVGLRRTASHSRTWIWSDGTRQNEGDLDANLWLRDEPNDAAGEEECALFMYSPWEKAWGLNDYLCRGGCRNYQFICEKWIR
Q: What does the source list for B1?
A: glycan array binding signal (z-score) [1]: -0.781; glycan array binding signal (z-score) [2]: -0.644; glycan array binding signal (z-score) [3]: -0.244; glycan array binding signal (z-score) [4]: -0.517; glycan array binding signal (z-score) [5]: -0.397; glycan array binding signal (z-score) (GlcNAc(b1-3)Fuc): 0.289; glycan array binding signal (z-score) (GlcNAc(b1-3)Gal): -0.533; glycan array binding signal (z-score) [6]: -0.016; glycan array binding signal (z-score) (GlcNAc(b1-3)Gal(b1-4)Glc): -0.547; glycan array binding signal (z-score) [7]: -0.487; glycan array binding signal (z-score) [8]: -0.371; glycan array binding signal (z-score) [9]: 0.725; glycan array binding signal (z-score) [10]: 0.509; glycan array binding signal (z-score) [11]: -0.039; glycan array binding signal (z-score) [12]: -0.037; glycan array binding signal (z-score) [13]: 0.262; glycan array binding signal (z-score) [14]: 0.113; glycan array binding signal (z-score) [15]: -0.513; glycan array binding signal (z-score) [16]: 0.681; glycan array binding signal (z-score) [17]: -0.173; glycan array binding signal (z-score) [18]: 0.139; glycan array binding signal (z-score) [19]: -0.316; glycan array binding signal (z-score) [20]: -0.193
